Source: PubChem BioAssay AID1346428 (National Center for Advancing Translational Sciences (NCATS), 2018)
Screen size: about 48,000 compounds; about 1,200 (2.5%) were called active. About 2% were inconclusive and are not listed.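 How the source made its calls: active means activation of at least 60% and not above a set upper limit (about 1 call in 100 departs from these limits); inconclusive means activation of 40% to 60%, or above that upper limit; inactive means activation under 40%.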 This is one part of the list.

Molecular target: Probable G-protein coupled receptor 32 (Homo sapiens) (UniProt O75388)
Experiment: qHTS for Agonists of Human Resolvin D1 Receptor DRV1
Settings: CHO-K1 GPR32 beta-arrestin PathHunter luminescence, 90 min; at 76.9 µM; hits give high values; zero percent set by DMSO-only wells
Source text: Endogenous resolution of inflammation is known to be transduced through various GPCRs and their natural mediators of lipid nature. Resolvin D1 (RvD1) is one of the active players in resolution of acute inflammation through regulation of anti-inflammatory pathways; it is known to enhance phagocytosis of human macrophages, limits neutrophils infiltration, etc. […] The search for GPR32-activating small molecules with anti-inflammatory effects similar to its natural omega-3 derivative ligand in order to use them as research tools for further studies of inflammation and its resolution was the goal of this screening project. For primary screening assay, we used CHO-K1 GPR32 beta-arrestin cell line (DiscoveRx, #93-0321C2A) and the PathHunter(R) beta-Arrestin Assay (DiscoveRx) which measures recruitment of beta-arrestin to the GPR32 and generates chemiluminescent signal. These engineered cells stably transfected with GPR32 co-express GPR32-fused small 42-amino acid fragment of beta-Gal called ProLinktrade mark, and […] -tagged beta-Arrestin fusion protein. When GPR32 is activated by a ligand, it stimulates binding of beta -Arrestin to ProLink-tagged GPR32, and two parts of beta-Gal complement forming a functional enzyme. Upon substrate (PathHunter(R) Detection reagent) addition, beta-Gal hydrolyzes it and generates a chemiluminescent signal.
The cells were thawed and plated in thawing media containing F-12 HAM (Invitrogen, #11765-054), 10% FBS (Invitrogen, #10082), 1x Glutamine, and 1x Pen/Strep onto the 175-mm flask for 24 hours. Then, thawing media was replaced with Growth media which contains 800microg/mL Geneticin (Invitrogen, #10131) and 300microg/mL Hygromycin B (Invitrogen, #10687) in addition to described above. For the assay, the cells were harvested at ~80% confluent stage with Cell Dissociation buffer (Gibco, #13151), and seeded at 2,500 cells/ 3microL/well in assay media (PathHunter(R) Cell Plating Reagent, DiscoverX, #93-0563R1B) using MultiDrop Combi dispenser (Thermo Scientific, Logan, UT) onto white solid bottom tissue culture-treated 1536-well plates (Greiner # 789173-F) and allowed to attach overnight at 37 degrees C, 95% humidity, 5% CO2, . Next, 23nL/well of compound solutions in DMSO were added with a Pin Tool (Kalypsis, San Diego, CA) to the assay plates. As the basal control (EC0), 23 nL/well of DMSO was used on each plate. The cells were incubated in the presence of compounds or DMSO for 90 minutes at 37 degrees C, 5% CO2. Subsequently, 1.5microL/well of PathHunter(R) Detection Reagent prepared per the manufacturer's instructions was added to the assay plates with BioRAPTR FRDtrade mark dispenser (Beckman Coulter, San Francisco, CA) and incubated for 1 hour at ambient temperature prior to the measurement of the luminescent signal on ViewLux(R) uHTS Microplate Imager (Perkin Elmer, Waltham, MA).

Chain of UniProt O75388 (O75388 whole entry, looked up): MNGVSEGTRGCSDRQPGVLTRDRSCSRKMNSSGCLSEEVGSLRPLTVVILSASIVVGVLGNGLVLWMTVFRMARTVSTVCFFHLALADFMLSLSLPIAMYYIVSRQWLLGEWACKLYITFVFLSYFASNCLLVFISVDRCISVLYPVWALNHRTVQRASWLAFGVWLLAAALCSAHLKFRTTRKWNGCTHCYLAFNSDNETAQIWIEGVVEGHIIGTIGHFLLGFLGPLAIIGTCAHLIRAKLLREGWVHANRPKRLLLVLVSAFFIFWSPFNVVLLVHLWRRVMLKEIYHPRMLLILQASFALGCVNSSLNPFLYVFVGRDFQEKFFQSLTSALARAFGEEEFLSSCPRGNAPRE

activation, inactive:
Cc1ccc(C2C=C(c3ccc(Cl)cc3)Nc3nc(NC(=O)CCC(=O)O)nn32)cc1 (centres undefined) 33.6%
CCOc1ccc(NC(=O)CCn2c(-c3ccc(F)cc3)cc(C(C)=O)c2C)cc1 -20.9%
COc1ccc(C2=C(C)C(=O)N(Cc3ccc(C(=O)NCc4ccccc4C)cc3)S2(=O)=O)cc1 -5.78%
O=S(=O)(NCCc1ccc(Cl)cc1)c1ccc(N2CCCCS2(=O)=O)cc1 15%
COc1ccccc1OCCCn1c(-c2ccc(Cl)cc2)nc2ccccc2c1=O -12.7%
O=C(CSc1nnc(-c2ccccc2)c(-c2ccccc2)n1)Nc1ccccc1Cl -21.1%
CCCOc1ccc(C(=O)Nc2cc3nn(-c4ccc(CC)cc4)nc3cc2C)cc1 -0.127%
CCC(C)Cn1c(COc2ccc(OC)cc2)nc2ccccc21 (centres undefined) -16.2%
Cc1ccc(Cl)cc1N1CCN(C(=O)c2cc(S(=O)(=O)N3CCC(C)CC3)cn2C)CC1 -4.63%
CC(=O)Nc1ccc(NC(=O)CC2Sc3ccccc3NC2=O)cc1 (centres undefined) -6.68%
Cc1c(CNCc2ccc(Cl)cc2)c(C(=O)O)c(C)n1Cc1ccc(F)cc1 -2.77%
COc1ccc(NC(=O)CSc2nc3nc(C)cc(C)n3n2)cc1 -1.61%
CCOc1ccc(CNC(=O)C2CCN(S(=O)(=O)c3c(C)noc3/C=C/c3ccc(C)cc3)CC2)cc1OC -3.67%
COc1ccc(NC(=O)Cn2c(CCC(=O)O)ccc2-c2ccccc2)cc1Cl -24.6%
CCCN(CCC)CCCNC(=O)C1CCC(CNS(=O)(=O)c2ccc(NC(C)=O)cc2)CC1 (centres undefined) -13.1%
COc1cccc(CNC(=O)CCc2nnc3n(C)c(=O)c4sccc4n23)c1 -7.63%
CCOC(=O)c1c(C)oc2nc(C)nc(Nc3cccc(OC)c3)c12 -6.64%
CCOC(=O)Cc1ccc(NC(=O)n2ncc3c(C)cccc32)cc1 44.5%
CCOc1ccc(CC(=O)Nc2c(C(=O)c3ccc(F)cc3)oc3ccccc23)cc1OCC 31.5%
Nc1ccc(S(=O)(=O)Nc2ccccn2)cc1 -0.55%
CCC(O)c1nc2ccccc2n1Cc1cccc(Cl)c1 (centres undefined) -14.3%
COc1ccc(C(CNC(=O)COc2ccc(C)c(C)c2)N2CCCCC2)cc1 (centres undefined) -12.5%
Cc1ccccc1CSc1cn(CCNC(=O)c2cccs2)c2ccccc12 24.6%
CC(=O)NCCNC(=O)CCCc1nnc2n(CCC(C)C)c(=O)c3sccc3n12 -11.2%
